Measurements published in PubChem BioAssay AID360 (National Center for Advancing Translational Sciences (NCATS), 2006).
In all, about 48,000 compounds went through this assay and about 550 (1.1%) were called active. About 4% were inconclusive and are not listed. No stated cut-off is given here; in the data, active means potency below about 15 µM; inconclusive means mostly about 16 µM to 33 µM; inactive means weaker than that. The list shows a part of the results.

molecular target: Lysosomal acid glucosylceramidase (Homo sapiens) (UniProt P04062); experiment: Glucocerebrosidase; conditions: purified enzyme, resorufin glucoside fluorescence (screen aimed at inhibitors), 20 min;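 further: the screen sought inhibitors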
Chain of UniProt P04062 (P04062 whole entry, looked up): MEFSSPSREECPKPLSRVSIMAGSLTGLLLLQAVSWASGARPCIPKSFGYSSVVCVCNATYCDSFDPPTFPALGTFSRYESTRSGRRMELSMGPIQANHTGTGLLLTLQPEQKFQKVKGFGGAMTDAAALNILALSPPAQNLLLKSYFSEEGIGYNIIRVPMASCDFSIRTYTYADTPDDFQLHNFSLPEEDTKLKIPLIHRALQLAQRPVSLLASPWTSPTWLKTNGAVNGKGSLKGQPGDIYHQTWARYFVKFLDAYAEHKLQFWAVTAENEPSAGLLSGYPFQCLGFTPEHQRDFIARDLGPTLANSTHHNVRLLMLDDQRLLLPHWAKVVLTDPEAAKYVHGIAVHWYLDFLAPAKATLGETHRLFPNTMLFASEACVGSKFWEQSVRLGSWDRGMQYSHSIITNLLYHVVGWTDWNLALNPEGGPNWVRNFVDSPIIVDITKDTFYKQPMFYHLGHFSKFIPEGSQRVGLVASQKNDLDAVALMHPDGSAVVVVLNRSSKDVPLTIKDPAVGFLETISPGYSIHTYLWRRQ
Summary of the method: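 Normal human glucocerebrosidase (0.2 nM final) was assayed with resorufin β-D-glucopyranoside (30 uM final) in 50mM citric acid/KH2PO4, 10mM sodium taurocholate, 0.01% tween-20, pH 5.9. Compounds were titrated; fluorescence (Ex 548, Em 600) read after 20 min at RT.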
Potency means the concentration at half of the fitted maximal effect.

Potency, inactive:
COc1ccc(C(=O)N2CCC(n3c(C)nc4cc(F)ccc43)CC2)cc1OC > 76.9 µM, O=C(NC1=NCCS1)c1ccc(Cl)s1 > 76.9 µM, Cc1cc(N2C(=O)c3ccc(C(=O)NCc4ccccc4)cc3C2=O)no1 > 76.9 µM, COc1ccccc1C1C2C(=O)N(c3ccccc3)C(=O)C2ON1c1ccccc1 (centres undefined) > 76.9 µM, CC(=O)c1c(N2CCN(C(=O)c3ccco3)CC2)nc(=S)n(-c2ccccc2)c1C > 76.9 µM, CC1CCC(NC(=O)C2CCN(c3cnccn3)CC2)CC1 (centres undefined) > 76.9 µM, CCOC(=O)c1cc(C#N)c(NCc2ccccc2)nc1C > 76.9 µM, CC(=O)c1cc2c(cc1NC(=O)C1CC=CCC1C(=O)O)OCO2 (centres undefined) > 76.9 µM, CCOc1ccc(OCC)c(NC(=O)CN2CCN(c3cc(C)ccc3C)CC2)c1 > 76.9 µM, Cn1c2c(c(=O)[nH]c1=O)C(NC(=O)c1ccco1)(C(F)(F)F)C(=O)N2 (centres undefined) > 76.9 µM, O=C(c1cccs1)N1CCC(c2nc3ccccc3s2)CC1 > 76.9 µM, CCOC(=O)c1c(NC(=O)CSc2nnc(-c3ccccc3)n2CC)sc(C(C)=O)c1C > 76.9 µM, COc1ccc(S(=O)(=O)N(C)CC(=O)Nc2ccccc2OC)cc1C > 76.9 µM, CC(=O)Nc1ccc(C(=O)CS(=O)(=O)c2ccc(C)cc2)cc1 > 76.9 µM, CCn1c(-c2cc(Br)cc(OC)c2O)nc2cc(S(=O)(=O)N(C)C)ccc21 > 76.9 µM, CCOC(=O)N1CCN(c2nc(C)cc(C(F)(F)F)n2)CC1 > 76.9 µM, C=CCn1c(SCn2nnc3ccccc3c2=O)nnc1-c1ccc(Cl)cc1 > 76.9 µM, Brc1ccc(-c2nn3c(Cc4ccccc4)nnc3s2)o1 > 76.9 µM, CCc1cc2c(NCCN3CCCCC3)ncnc2s1, COc1ccc(S(=O)(=O)NC2CCCCC2)cc1C > 76.9 µM, CCOC(=O)c1ccc(NC2OC(=O)c3ccccc32)cc1 (centres undefined) > 76.9 µM, COc1cc(OC)cc(-n2nnnc2SCC(=O)N2CCCc3ccccc32)c1 > 76.9 µM, C=CCn1c(SCc2c(C)noc2C)nc2sc3c(c2c1=O)CCCCC3, CCOC(=O)c1[nH]c(C(=O)O)c(CCC(=O)OC)c1C > 76.9 µM, CC(=O)c1cc2c(cc1NC(=O)CCCC(=O)O)OCO2 > 76.9 µM, CCOCC(=O)Nc1cc(OC)c(Cl)cc1OC > 76.9 µM, Nn1c(SC/C=C/c2ccccc2)nnc1-c1ccncc1 > 76.9 µM, CCCCNC(=O)CSc1nnc(-c2ccco2)n1C > 76.9 µM, CCOC(=O)c1c(CN2CCCCC2)n(C)c2cc(Br)c(OC)cc12 > 76.9 µM, O=C(O)c1oc2ccc(Br)cc2c1-n1cccc1 > 76.9 µM, S=c1nc(-c2ccccc2)n(CCN2CCOCC2)c2c1CCCC2 > 76.9 µM, CCN1CCN(Cc2nc3c(c(=O)n(C)c(=O)n3C)n2C(C)C(C)=O)CC1 (centres undefined) > 76.9 µM, CCc1ccccc1NC(=O)CSc1nnc([C@H](CCSC)NC(=O)OC(C)(C)C)o1 > 76.9 µM, Nc1nonc1C(=O)OCC(=O)N1CCCCC1 > 76.9 µM, CCOc1ccccc1N1CC(C(=O)Nc2ccc(C(=O)O)cc2)CC1=O (centres undefined) > 76.9 µM, CCOc1ccc(CCNC(=O)C2CCN(S(=O)(=O)N3CCOCC3)CC2)cc1OCC > 76.9 µM, Cc1cc(C)nc(Sc2nc(C)nc3c2oc2ccccc23)n1 > 76.9 µM, CCOC(=O)N1CCN(C(=O)c2cc(-c3ccc(OCC)cc3)nc3ccccc23)CC1 > 76.9 µM, CC12CC(c3ccccc3O1)C(C(=O)NCc1ccccc1)C(=O)N2 (centres undefined) > 76.9 µM, CCOC(=O)Nc1nnc(CCc2ccccc2)s1 > 76.9 µM, Cc1ccccc1NCc1ccccc1O > 76.9 µM, CC1CCN(CCCNC(=O)C2CCN(S(=O)(=O)N3CCCCC3)CC2)CC1 > 76.9 µM, CCN(CC)C(=O)CCC(=O)Nc1ccc(C(=O)OC)cc1 > 76.9 µM, O=C(O)C1CC(=O)N(c2ccc(F)c(F)c2)C1 (centres undefined) > 76.9 µM, COc1ccc(N2CC(O)=C(c3nc4ccccc4s3)C2=N)c(OC)c1 > 76.9 µM, O=C(CC1CCCCC1)NCc1cn2ccsc2n1 > 76.9 µM, COc1ccc(NC(=O)c2cc(-c3cccs3)on2)cc1OC > 76.9 µM, O=C(Oc1ccc(-c2nnco2)cc1)N1CCOCC1 > 76.9 µM, Cc1ccc(-n2c(Cc3cccn3C)nnc2SCC(=O)NC2CCCCC2)cc1 > 76.9 µM, CCN1CCN(CC(=O)Nc2c(C(=O)OC)[nH]c3cccc(Cl)c23)CC1 > 76.9 µM, COc1nc(C#N)c(N2CCOCC2)o1 > 76.9 µM, O=C1c2ccccc2NC(c2cnc3ccccc3n2)N1O (centres undefined) > 76.9 µM, Cc1ccc(NCc2nc3ccccc3n2C)cc1 > 76.9 µM, COc1ccc(-n2nnc3c(=O)n(Cc4cc(C)ccc4C)cnc32)cc1 > 76.9 µM, COc1cccc(C(=O)CSc2nnc(-c3cccs3)o2)c1 > 76.9 µM, COc1ccccc1N1CCN(C(=O)c2cc(-c3ccc4c(c3)OCO4)on2)CC1 > 76.9 µM, C=CCNc1ncnc2ccccc12 > 76.9 µM, COC(=O)c1[nH]c(C)c(/C(O)=C2\C(=O)C(=O)N(CCN(C)C)C2c2cc(OC)ccc2OC)c1C (centres undefined) > 76.9 µM, Cc1ccnc(N2CCC(C(=O)NC3CCCCCC3)CC2)n1 > 76.9 µM, O=C(NCc1ccccc1)N1CCC(n2cnc3cc(F)ccc32)CC1 > 76.9 µM, COC(=O)COc1ccc(S(=O)(=O)NCc2ccco2)cc1 > 76.9 µM, COC(=O)C1CCN(c2cc(=O)n(C3CCCCC3)c(=O)[nH]2)CC1 > 76.9 µM, Cc1cc(C)n(-c2ccc(C(=O)OCC(=O)Nc3ccc(S(=O)(=O)N4CCOCC4)cc3)cc2)n1 > 76.9 µM, CCN=C1SC(CC(=O)Nc2sc(C)c(C)c2C(=O)OC)C(=O)N1CC (centres undefined) > 76.9 µM, CC(NC(=O)Cc1cccs1)C(c1cccs1)N1CCN(c2ccccc2F)CC1 (centres undefined) > 76.9 µM, Cc1ccc(CNC(=O)C2CC(=O)OC23CCCC3)c(C)c1 (centres undefined) > 76.9 µM, Cn1nnc(NC(=O)CSc2ncn[nH]2)n1 > 76.9 µM, CCOCC(=O)NCc1ccc2c(c1)OCO2 > 76.9 µM, Cc1cc(NC(=O)CSc2nc(-c3ccco3)cc(C(F)(F)F)n2)n(-c2ccccc2)n1 > 76.9 µM, O=C(Cn1nnc(-c2ccc3c(c2)OCO3)n1)N1CCOCC1 > 76.9 µM, O=C(COc1ccc(Br)cc1CO)Nc1ccc(F)cc1 > 76.9 µM, CCn1c(SCC(=O)c2ccccc2)nnc1-c1ccoc1C > 76.9 µM, CC(=O)c1cc2c(cc1N)OCO2 > 76.9 µM, Cc1ccc(SCc2nc(-c3cccnc3)no2)cc1 > 76.9 µM, CN(C)CCNC(=O)Cc1c(C(=O)O)n(C)c2ccccc12 > 76.9 µM, CCCCCCn1c(NCC)nc2c1c(=O)n(C)c(=O)n2C > 76.9 µM, CCCCn1c(=O)c2c(c3ccccc31)OCC(=O)N2 > 76.9 µM, CC(NC(=O)CSc1ncccn1)c1ccccc1 (centres undefined) > 76.9 µM, CCOc1ccccc1C(=O)Nc1ccc(-c2nnc(-c3ccc(C)cc3)o2)cc1 > 76.9 µM, N#C/C(=C\C1CC=CCC1)c1nc2ccccc2[nH]1 (centres undefined), O=C(CN1CCC2(CC1)OCCO2)c1ccc2cc[nH]c2c1 > 76.9 µM, CCC(C)NS(=O)(=O)c1ccc(OCC(=O)NCc2ccc3c(c2)OCO3)cc1 (centres undefined) > 76.9 µM, CS(=O)(=O)N(CC(O)Cn1c2ccccc2c2ccccc21)c1ccccc1 (centres undefined) > 76.9 µM, O=C(Oc1cccc(N2C(=O)CCC2=O)c1)C1CC(=O)N(c2ccc(Br)cc2)C1 (centres undefined) > 76.9 µM, Cc1cccc(OCc2nnc(SCc3nc4ccccc4c(=O)[nH]3)o2)c1 > 76.9 µM, CCOC(=O)c1sc(=S)n(CC)c1N > 76.9 µM, CCOC(=O)c1c(C)[nH]c(C)c1-c1ccccc1OC > 76.9 µM, COC(=O)c1sc2nc(CN3CCOCC3)nc(N3CCOCC3)c2c1C > 76.9 µM, N#Cc1cc2ccccc2nc1SCc1ccccn1 > 76.9 µM, Cc1nn(Cc2ccc(Cl)c(Cl)c2)c(C)c1NC(=O)c1noc2c1CCCCC2, O=C(O)CSc1nnc(-c2ccccc2O)n1Cc1ccccc1 > 76.9 µM, CCOC(=O)C1CCN(C(=O)c2cccnc2)CC1 > 76.9 µM, COc1ccc(CCNC(=O)Cn2c(=O)n(Cc3ccco3)c(=O)c3ccc(Cl)cc32)cc1OC > 76.9 µM, O=C(NC1CCCCC1)C1CCN(C(=O)NCc2ccccc2)CC1 > 76.9 µM
